The values below come from PMC6212790.

Some of the results follow. At the low end of the ranking, values are background and their order means little.

For the experiment, the target named is T1, GST-Rok (full length) (UniProt O34857).
T1 sequence: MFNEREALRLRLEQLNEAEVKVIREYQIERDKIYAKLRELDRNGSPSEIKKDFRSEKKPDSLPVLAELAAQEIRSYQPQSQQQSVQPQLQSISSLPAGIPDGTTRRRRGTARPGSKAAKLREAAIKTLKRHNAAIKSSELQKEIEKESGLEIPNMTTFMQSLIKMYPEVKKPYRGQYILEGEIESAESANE
Kind of experiment: protein binding microarray.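 Also: rank score from −0.5 (least bound) to 0.5 (best bound).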 The following applies: Rok is a gene silencer of Bacillus subtilis; high values mean tight binding; most listed sequences are background and not binding sites; double strand, one strand shown.
CTATTAAA showed a binding signal of 0.116 E-score.
CAACTTGG: the binding signal was -0.131 E-score.
Consider CTCATCAC, for which the binding signal worked out at 0.0444 E-score.
With ATTTAATA, the binding signal was 0.228 E-score.
As for ATCTGGGA, the binding signal is -0.127 E-score.
CTTGCGTA yielded a binding signal of 0.104 E-score.
On to CTCAGTAA, for which the binding signal is 0.086 E-score.
On to AAAAGCTA, for which the binding signal was 0.0708 E-score.
For ACAACGTG, the binding signal is -0.0497 E-score.
In the case of CATCAGTA, the binding signal is 0.0497 E-score.
In the case of CGCCGTGC it was -0.294 E-score.
The figure for AGTTCTGA is 0.195 E-score; for GCCCTAGC it is -0.328 E-score.
In the case of GCATCGCA it was 0.0124 E-score; in that of GAGACTGC, -0.106 E-score.
Sequence CTTACAAA yielded a binding signal of 0.0672 E-score.
Regarding ATGTACAG, the binding signal stood at 0.3 E-score.
ACTGTAAA: the binding signal is 0.17 E-score.
CTTCAAGC came in with a binding signal of -0.269 E-score.
Sequence AAAACGGG showed a binding signal of -0.119 E-score.
For AATGGGGT, the binding signal was -0.168 E-score.
With ACATACTA, the binding signal is 0.361 E-score.
Take GAACACAC: the binding signal is -0.124 E-score.
Sequence GGCACCGA had a binding signal of -0.393 E-score.
Sequence CCTTCTAC showed a binding signal of 0.214 E-score.
The sequence CGCTTGAA gave a binding signal of -0.157 E-score.
Consider AGCTCGCC, for which the binding signal is -0.0406 E-score.
For GGTCTCGA, the binding signal was -0.255 E-score.
In the case of CAACATTC it was -0.0288 E-score; in that of CCTGTTAC, -0.0212 E-score.
Regarding CCTGTCAC, the binding signal was -0.265 E-score.
Consider ACGGATCA, for which the binding signal was 0.0527 E-score.
The figure for AATAGGTA is 0.333 E-score; for TCTCGCCA it is -0.124 E-score.
In the case of AACTAGAT it was 0.369 E-score.
For the sequence GATCGAAC, the binding signal came to 0.121 E-score.
For the sequence CAACAGAC, the binding signal is -0.0636 E-score.
Regarding AACCGACC, the binding signal was -0.14 E-score.
In the case of CATTAACG it was -0.00911 E-score; in that of AATCCCAG, -0.202 E-score.
Turning to CCTAAAAG, the binding signal was found to be 0.00605 E-score.
The sequence TACGTTGA came in with a binding signal of 0.0836 E-score.
Take GATTCAGA: the binding signal was -0.154 E-score.
With CCCAGATC, the binding signal is -0.315 E-score.
AACCGTGG showed a binding signal of -0.0188 E-score.
The sequence CGTCAAAG registered a binding signal of -0.218 E-score.
ACGTTTAT gave a binding signal of 0.145 E-score.
For the sequence ATGTATTG, the binding signal came to 0.223 E-score.
Consider AACGCGTT, for which the binding signal was found to be 0.14 E-score.
With ACTTATAC, the binding signal worked out at 0.333 E-score.
The figure for GTCGGAAC is -0.162 E-score.
CCCAATGC yielded a binding signal of -0.21 E-score.
Consider ACCTGAAG, for which the binding signal turned out to be 0.0462 E-score.
ACAGTATA gave a binding signal of 0.343 E-score.
AGCTATGA returned a binding signal of 0.19 E-score.
With ATGCGGAA, the binding signal turned out to be 0.0222 E-score.
TTAATTAA had a binding signal of 0.258 E-score.
The sequence CGGGTCCA returned a binding signal of -0.258 E-score.
In the case of AGACCTGA it was -0.0103 E-score.
In the case of GATTGTCA it was 0.1 E-score; in that of GGACAGGA, -0.211 E-score.
Regarding CTCTGTTA, the binding signal was 0.00411 E-score.
On to GCACGAGA, for which the binding signal was -0.157 E-score.
As to AAGGGAAA, the binding signal was -0.116 E-score.
The figure for ATCTACCC is 0.25 E-score; for ATCAATCC it is -0.0557 E-score; for CTTACGTA it is 0.179 E-score.
CAGAGTCG displayed a binding signal of -0.14 E-score.
As for GTCATACA, the binding signal is 0.0863 E-score.
ACGACGAA registered a binding signal of 0.133 E-score.
CGTGTACC returned a binding signal of -0.123 E-score.
For the sequence TAACACTA, the binding signal is 0.284 E-score.
TCTGAGAA displayed a binding signal of 0.0283 E-score.
The figure for GGTGTCCA is -0.279 E-score; for CCTAAAGC it is -0.165 E-score; for TGTCGTAA it is 0.217 E-score.
GCTAACAA returned a binding signal of -0.0584 E-score.
For the sequence CGGATAAA, the binding signal was found to be 0.178 E-score.
Take ATGTCAGC: the binding signal came out at 0.0377 E-score.
In turn, GTGACGGA yielded a binding signal of -0.136 E-score.
Sequence AATCGGAA yielded a binding signal of 0.0335 E-score.
In the case of GAGCGGCC it was -0.145 E-score; in that of AGCCACGG, -0.331 E-score; in that of GTTCAGAA, -0.119 E-score.
For the sequence TATACGAA, the binding signal was 0.111 E-score.
ACGCGATC had a binding signal of -0.16 E-score.
Regarding AATTGTCT, the binding signal was 0.0901 E-score.
As for CCTCTACC, the binding signal amounted to 0.0313 E-score.
In turn, TCTCTTCA displayed a binding signal of -0.149 E-score.
Take CCTTTGAA: the binding signal was -0.337 E-score.
CTTGACAA yielded a binding signal of -0.11 E-score.
GACATGGC registered a binding signal of 0.0109 E-score.
Consider CTATATTA, for which the binding signal was 0.384 E-score.
The sequence ATTTCTAG yielded a binding signal of 0.333 E-score.
On to AGCGGAAT, for which the binding signal stood at 0.133 E-score.
With GGCGCAAA, the binding signal came out at 0.0895 E-score.
ATGCGTAC had a binding signal of -0.0228 E-score.
Regarding AAGAAAAA, the binding signal was 0.0725 E-score.
On to GACCACGC, for which the binding signal is -0.0613 E-score.
AAGTGAGA registered a binding signal of -0.0697 E-score.
Take AGGTTCTC: the binding signal is -0.239 E-score.
As to TAGCGGAA, the binding signal is 0.245 E-score.
CGGTTCAG: the binding signal was -0.103 E-score.
In the case of CAGTAAAC it was 0.081 E-score; in that of AACTTGGA, 0.176 E-score; in that of ACCTAAAG, -0.0934 E-score.
In the case of GGACGATA, the binding signal was -0.0586 E-score.
Turning to CATCTAGC, the binding signal was 0.119 E-score.
For ACAGAGAT, the binding signal came to 0.103 E-score.
As for AATGGGGA, the binding signal is -0.237 E-score.
In turn, TCAGCAAA gave a binding signal of -0.0262 E-score.
As for ATTAGTAA, the binding signal came to 0.314 E-score.
For GTAGCTGA, the binding signal stood at 0.219 E-score.
In turn, CACTATTC yielded a binding signal of -0.0318 E-score.
In the case of ACATTGAA it was 0.0464 E-score; in that of AGACCATC, -0.171 E-score; in that of ACAACTGG, -0.111 E-score.
The figure for AACAGACC is -0.0512 E-score; for CAAAACGA it is -0.0901 E-score.
In the case of GAAAAGAC it was 0.151 E-score; in that of CACCGTAC, -0.0705 E-score; in that of AAAGATTA, 0.125 E-score.
For the sequence AGACTTCC, the binding signal was -0.151 E-score.
The figure for CTTGTAAA is 0.211 E-score; for CGAATCGC it is -0.207 E-score; for AACATTCC it is 0.103 E-score.
In the case of GTCTCCAC it was -0.176 E-score; in that of GCCACGTA, 0.00863 E-score; in that of GCTAAAAC, 0.0751 E-score.
As to TATCCTGA, the binding signal was -0.00716 E-score.
In the case of CAGATTCC, the binding signal was -0.0974 E-score.
In the case of TCCGATCA it was -0.104 E-score; in that of CAGAACCC, -0.227 E-score.
With AGACATGC, the binding signal is -0.0785 E-score.
The sequence CCCTCACG registered a binding signal of -0.262 E-score.
Consider AGAAGTCT, for which the binding signal was determined as 0.0645 E-score.
GATGTGTA registered a binding signal of 0.217 E-score.
CTAGTTCA registered a binding signal of 0.152 E-score.
With CCAACCGA, the binding signal was -0.0621 E-score.
Regarding ACACCACT, the binding signal is 0.134 E-score.
Sequence AAATTTCC yielded a binding signal of 0.101 E-score.
CGGCGGGA showed a binding signal of -0.313 E-score.
Turning to CGGCCCAA, the binding signal is -0.197 E-score.
Sequence AACGGGGT yielded a binding signal of -0.166 E-score.
Turning to TAGAAACA, the binding signal is 0.239 E-score.
Sequence CTCCGCGA came in with a binding signal of -0.0969 E-score.
With TGTCGCAA, the binding signal is -0.16 E-score.
ATGGATGA: the binding signal came to 0.105 E-score.
In the case of ATAGTCTA it was 0.0771 E-score; in that of ATGGGCAC, -0.145 E-score.
AGTTATAT displayed a binding signal of 0.291 E-score.
As for GAGCACAC, the binding signal is -0.106 E-score.
CCATAGAA showed a binding signal of 0.161 E-score.
In turn, CAAAAGCA gave a binding signal of -0.242 E-score.
CACAACCG: the binding signal is 0.019 E-score.
Regarding CGTAGAAC, the binding signal amounted to 0.0102 E-score.
Consider CGTTCAGA, for which the binding signal was -0.0785 E-score.
GGGCCGAA came in with a binding signal of -0.346 E-score.
As to CGACAATA, the binding signal came out at 0.0992 E-score.
Turning to CTCCGACA, the binding signal is -0.231 E-score.
As for GACAAACA, the binding signal is 0.0661 E-score.
As for CCTGGTTA, the binding signal is -0.0555 E-score.
Regarding ATTCAAAT, the binding signal was -0.0683 E-score.
Take ATGATCGA: the binding signal was found to be 0.0657 E-score.
Turning to AAAGTGGG, the binding signal is -0.154 E-score.
In the case of AAGCACAC it was -0.177 E-score; in that of AGAGGACG, -0.302 E-score; in that of ATTTAGCC, 0.0694 E-score.
Take GGAGAAAA: the binding signal was -0.0524 E-score.
CTAACCCA returned a binding signal of -0.0709 E-score.
ATTACATC: the binding signal turned out to be 0.148 E-score.
The sequence GGGGCAAC showed a binding signal of -0.257 E-score.
